# Reference: PubChem BioAssay AID488895 (Broad Institute, 2010)
# Hit rate of the full screen: of about 340,000 compounds, about 120 (0.035%) were called active. The shares of active, inactive and inconclusive entries below differ from those in the screen.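 How the source made its calls: active means mean replicate inhibition at least 50% and at least half of replicates individually reaching 50%; inconclusive means only one of the two criteria met; inactive means neither criterion met.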
# Assay: E. coli Tat export inhibitors, primary screen, MC4100, TorA-mCherry reporter, fluorescence, single point (AID 488895);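 further: exported cargo escapes ClpAP degradation while cytoplasmic cargo is degraded and loses fluorescence; 0% = median of neutral control wells and 100% = median of NaSCN control wells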
# Details: at 10 µM, stronger effect = higher value
row,Compound,inhibition
1,CCOc1cccc(=O)c2c(C)n(-c3ccc(C(=O)O)cc3)c(C)c12,inconclusive: 28.4%
2,COc1ccc(OC)c(NC(=O)NCc2cccnc2)c1,inconclusive: 37.3%
3,Cc1cccc(C(=O)NN2C(=O)C3C(c4ccccc4)C=CC(c4ccccc4)C3C2=O)c1 (stereo not drawn),inconclusive: 28.1%
4,COc1cc(/C=N/NC(=O)c2ccccn2)ccc1OC(=O)c1ccc(Br)cc1,inconclusive: 32.7%
5,CC(C)(C)OC(=O)NCC(=O)N1CCC(C(=O)O)CC1,inconclusive: 26.7%
6,O=C(CCCn1c(=O)[nH]c2ccsc2c1=O)N1CCCCC1,inconclusive: 23.9%
7,Oc1ccccc1N=N/C(=N/Nc1ccccc1O)c1ccccc1,inactive: 1.46%
8,O=C(CC1SCCNC1=O)Nc1cccc(Cl)c1 (stereo not drawn),inconclusive: 28.4%
9,NS(=O)(=O)c1ccc(CCNC(=O)Cc2ccc(S(=O)(=O)N3CCCC3)s2)cc1,inconclusive: 36.3%
10,CC1(C)CC(=O)C(CC(=O)N2CCC(Cc3ccccc3)CC2)C(=O)C1,inactive: 3.6%
11,O=C1CCC(=O)N1c1ccc(CSc2nc3ccccc3[nH]2)cc1,inactive: -1.13%
12,CCc1ccc(N2CC34C=CC(O3)C(C(=O)OC(C)C)C4C2=O)cc1 (stereo not drawn),inconclusive: 45.1%
13,CS(=O)(=O)N1CCN(C(=O)c2cccnc2)CC1,inconclusive: 28.8%
14,NC1CCN(c2c(F)cc3c(=O)c(C(=O)O)cn(C4CC4)c3c2Cl)C1 (stereo not drawn),active: 149%
15,CC(=O)c1cccc(NC(=O)c2ccc([N+](=O)[O-])o2)c1,inactive: 0.415%
16,O=C(CCC(=O)OCc1cccc(C(=O)Oc2ccccc2)c1)Nc1cccc2ccccc12,inconclusive: 22.6%
17,O=C(Cn1c(CO)nc2ccccc21)NCCc1ccc(F)cc1,inactive: 2.12%
18,C[C@@H]1CN(c2c(F)c(F)c3c(=O)c(C(=O)O)cn(C4CC4)c3c2F)C[C@H](C)N1,active: 68%
19,CCO[C@@H]1OC(C(=O)O)=C[C@H](C)[C@H]1CCCO,inconclusive: 24.5%
20,Fc1ccccc1CNC(=S)Nc1cccc(C(F)(F)F)c1,inactive: -3.09%
21,NC(=S)Nn1c(-c2ccccc2)nc2ccccc2c1=O,inconclusive: 22.5%
22,COc1cc2ccccc2cc1C(=O)NNC(=O)c1ccccc1O,inactive: 3.47%

row,Compound,inhibition
1,O=C(Nc1ccccc1)Nc1ccc(Cl)c([N+](=O)[O-])c1,inactive: -3.54%
2,NC(=O)c1ccccc1NC(=O)COc1ccc2c(c1)OCO2,inconclusive: 31.3%
3,Cc1cccc(Nc2nc(N)c([N+](=O)[O-])c(N3CC(C)OC(C)C3)n2)c1 (stereo not drawn),inactive: 12.7%
4,CCn1c(SCC(=O)Nc2ccc(OC)cc2)nc2c1c(=O)n(C)c(=O)n2C,inconclusive: 30.2%
5,Cc1ccc(C(=O)c2coc3c2C(=O)C(=O)c2ccccc2-3)cc1,inactive: -10.1%
6,CCOC(=O)C(C(=O)Nc1ccc(C)cc1)C1CCCCC1 (stereo not drawn),inconclusive: 24.9%
7,CCn1nnc(NC(=O)c2ccc([N+](=O)[O-])o2)n1,inactive: -11.1%
8,CC1CCCN(C(=O)c2nn(C)c3c2CSc2ccccc2-3)C1 (stereo not drawn),inconclusive: 27.6%
9,O=C1CCCN1Cc1ccccc1,inconclusive: 31.1%
10,CCCn1c(=N)c(S(=O)(=O)c2ccc(F)cc2)cc2c(=O)n3cccc(C)c3nc21,inconclusive: 31.4%
11,C=CCn1c(C)cc(C(=O)CSc2nnc3c(Cl)cc(Cl)cn23)c1C,inconclusive: 33.3%
12,Cc1ccc(NC(=O)NCc2ccccn2)cc1Cl,inconclusive: 27.1%
13,O=C(CNC1CCCCC1)Nc1cc(S(=O)(=O)N2CCOCC2)ccc1Cl,inconclusive: 32%
14,CCOC(=O)c1c(N/C=C(\C#N)c2nc(-c3ccc(OC(C)=O)cc3)cs2)sc2c1CCC2,inconclusive: 31.4%
15,CCc1cc(Cl)c(OC)c(C(=O)NC[C@@H]2CCCN2CC)c1O,inconclusive: 29%
16,CC(NC(=O)c1ccc([N+](=O)[O-])cc1[N+](=O)[O-])c1ccc(-c2ccccc2)cc1 (stereo not drawn),inconclusive: 30.4%
17,CCc1ccc(C(=O)NNc2ccc(S(N)(=O)=O)cc2)cc1,inactive: -9.54%
18,O=c1cc2oc3cc(O)c(O)cc3c(-c3ccccc3[N+](=O)[O-])c-2cc1O,inactive: -0.307%
19,O=C(Nc1cc(N2CCOCC2)ncn1)c1ccccc1,inconclusive: 31.7%
20,CCOC(=O)c1ccc(NC(=O)c2nc(S(=O)(=O)Cc3ccccc3)ncc2Cl)cc1,inactive: 5.82%
21,Cc1ccc(NC(=O)c2cccs2)cc1S(=O)(=O)Nc1cccc(Cl)c1,inconclusive: 26.1%
22,Cc1ccc(NC(=O)c2ccc(Oc3ncccn3)cc2)cc1,inconclusive: 26.1%

row,Compound,inhibition
1,Cc1cc(C(F)(F)F)n2ncc(C(=O)O)c2n1,inactive: -4.24%
2,O=C(NCc1ccccc1)c1ccc(CS(=O)(=O)c2ccccc2)o1,inconclusive: 32.6%
3,C=Cn1cc[n+](CC(=O)c2ccc(OC)c(OC)c2)c1,inconclusive: 22.2%
4,CCC(CO)NC(=O)c1cccc(S(=O)(=O)N2c3ccccc3CC2C)c1 (stereo not drawn),inconclusive: 15.3%
5,O=C(NCCc1ccccc1)c1n[nH]c2ccccc12,inconclusive: 28.4%
6,CCOC(=O)[C@H]1[C@H]2COc3ccc(Cl)cc3[C@@H]2N2C(=O)[C@H](C)NC(=O)[C@@]12C,inconclusive: 25.5%
7,O=C(c1ccccc1)N1CCN(c2nc3ccc([N+](=O)[O-])cc3s2)CC1,inconclusive: 42.1%
8,CC(=O)c1cc(CN2CCN(C3CCCCC3)C(CCO)C2)cs1 (stereo not drawn),inconclusive: 37.1%
9,CC(=O)c1ccc(-c2cccc(-c3nc4ccccn4c3NC3CCCCC3)c2)cc1,inconclusive: -8.64%
10,O=S(=O)(c1ccccc1)c1cnc(-c2cccnc2)nc1-c1ccc(Cl)cc1Cl,inconclusive: 35.8%
11,O=C(NC(c1ccccc1)c1c(O)ccc2ccccc12)c1ccccc1Cl (stereo not drawn),inactive: 6.21%
12,O=C(CCNC(=O)c1ccc([N+](=O)[O-])cc1)Nc1cccc(S(=O)(=O)N2CCCCCC2)c1,inconclusive: 34.5%
13,CCOC(=O)N1CCC(NC(=O)c2oc3c(c2C)-c2[nH]ncc2CC3)CC1,inconclusive: 30.3%
14,O=C(Cn1cc2c(n1)CCCCC2)N1CCc2ccccc2C1,inconclusive: 22.4%
15,COCCC1CCCCN1C(=O)c1cccc(OC2CCN(S(C)(=O)=O)CC2)c1 (stereo not drawn),inconclusive: 23.5%
16,O=C(Nc1c2c(nn1-c1ccccc1)CS(=O)(=O)C2)c1cccs1,inconclusive: 29.4%
17,Cc1ccc(NC(=O)c2cc(N3C(=O)C4CC=CCC4C3=O)ccc2N2CCOCC2)cc1Cl (stereo not drawn),inconclusive: 26.1%
18,COc1ccc(-c2noc(CSc3nnc(-c4ccncc4)n3-c3ccc(F)cc3)n2)cc1OC,inconclusive: 36.8%
19,C=CC[n+]1c(/C=C2\C=Cc3cc(C)ccc3N2CC)ccc2ccccc21,inactive: -8.55%
20,CN(C(=O)COC(=O)CNC(=O)C12CC3CC(CC(C3)C1)C2)C1CCS(=O)(=O)C1 (stereo not drawn),inconclusive: 31%
21,Clc1ccccc1Nc1ncnc2c1nnn2Cc1ccccc1,inactive: -7.02%
22,c1ccc(C2NCCc3ccccc32)cc1 (stereo not drawn),inconclusive: 31.4%

row,Compound,inhibition
1,CCCCNC(=O)NNC(=O)c1ccc(F)cc1,inconclusive: 22%
2,Cn1cc(S(=O)(=O)N2CCC(C(N)=O)CC2)c(=O)n(C)c1=O,inactive: -2.22%
3,CC(=O)c1ccc(NC(=O)CSc2nnc(C3CC3)n2C2CC2)cc1,inconclusive: 22.8%
4,O=C(N/N=C/c1ccccc1)c1ccco1,inactive: 1.02%
5,Cc1c(OCC(=O)NCCCN2CCOCC2)ccc2c1oc(=O)c1ccccc12,inconclusive: 29.1%
6,C=CCNc1ccccc1S(=O)(=O)NCc1ccccc1,inconclusive: 31.1%
7,COc1cccc(/C=N/Nc2ncnc3scc(-c4ccccc4)c23)c1O,inactive: -0.359%
8,O=C(O)[C@@H](c1ccccc1)N1Cc2ccccc2C1=O,inconclusive: 40.8%
9,CCOC(=O)CC(NC(=O)c1cccc2c1C(=O)N(Cc1cccnc1)C2)c1ccc(OCC)c(OC)c1 (stereo not drawn),inconclusive: 23.2%
10,CC(=O)NC(c1ccc(Cl)cc1)c1ccc2cccnc2c1O (stereo not drawn),inactive: -10.4%
11,COc1ccc2cc(C(=O)N/N=C/c3sc4ccccc4c3O)ccc2c1,inactive: -5.16%
12,Cc1ccc(NC(=O)C(c2ccc(Cl)cc2)N2CCCCC2)cc1 (stereo not drawn),inconclusive: 34.9%
13,O=C1CCCC2=C1CC(C(=O)OCc1ccccc1)C(=O)N2Cc1ccccc1 (stereo not drawn),inconclusive: 20.7%
14,Cc1ccc(OCc2n[nH]c(=S)n2-c2ccc(Br)cc2)cc1,inactive: -10.9%
15,Cc1ccc(NC(=O)CN2C(=O)NC3(CCc4ccccc43)C2=O)cc1 (stereo not drawn),inactive: -1.65%
16,CCC(ONc1ccccc1C(F)(F)F)(C(=O)NN(C)C)c1ccccc1 (stereo not drawn),inactive: -10%
17,COCCCNc1nc2c(c(=O)[nH]c(=O)n2C)n1CC(O)COc1cccc(C)c1 (stereo not drawn),inconclusive: 33.8%
18,Cc1nc2c(=O)n(-c3cccc(C(F)(F)F)c3)nc(C)c2s1,inconclusive: 24.3%
19,O=C(Nc1ccc(S(=O)(=O)NCc2ccco2)cc1)c1ccc(F)cc1,inconclusive: 24.2%
20,Cc1cccc(NC(=O)CNC(=O)CN2C(=O)NC3(CCc4ccccc43)C2=O)c1C (stereo not drawn),inconclusive: 33.3%
21,O=C(CSCc1ccc(Cl)cc1)Nc1ccc(-c2nnc(-c3ccccc3)o2)cc1,inconclusive: 36.4%
22,Cc1ccc(-n2c(O)c(C=Nc3ccccc3-c3n[nH]c(=S)[nH]c3=O)c3ccccc3c2=O)cc1C,inconclusive: 30.2%
